3 molecules from publication PMC6084981 can be followed below.

Sequences of proteins named here, by UniProt entry; tags and fusion partners are left off. A change or cut given only in a name is not applied to a line headed by its entry. A line that says so, or that is headed by a name, gives the form on record, which may keep a tag or linker.
UniProt Q9M658: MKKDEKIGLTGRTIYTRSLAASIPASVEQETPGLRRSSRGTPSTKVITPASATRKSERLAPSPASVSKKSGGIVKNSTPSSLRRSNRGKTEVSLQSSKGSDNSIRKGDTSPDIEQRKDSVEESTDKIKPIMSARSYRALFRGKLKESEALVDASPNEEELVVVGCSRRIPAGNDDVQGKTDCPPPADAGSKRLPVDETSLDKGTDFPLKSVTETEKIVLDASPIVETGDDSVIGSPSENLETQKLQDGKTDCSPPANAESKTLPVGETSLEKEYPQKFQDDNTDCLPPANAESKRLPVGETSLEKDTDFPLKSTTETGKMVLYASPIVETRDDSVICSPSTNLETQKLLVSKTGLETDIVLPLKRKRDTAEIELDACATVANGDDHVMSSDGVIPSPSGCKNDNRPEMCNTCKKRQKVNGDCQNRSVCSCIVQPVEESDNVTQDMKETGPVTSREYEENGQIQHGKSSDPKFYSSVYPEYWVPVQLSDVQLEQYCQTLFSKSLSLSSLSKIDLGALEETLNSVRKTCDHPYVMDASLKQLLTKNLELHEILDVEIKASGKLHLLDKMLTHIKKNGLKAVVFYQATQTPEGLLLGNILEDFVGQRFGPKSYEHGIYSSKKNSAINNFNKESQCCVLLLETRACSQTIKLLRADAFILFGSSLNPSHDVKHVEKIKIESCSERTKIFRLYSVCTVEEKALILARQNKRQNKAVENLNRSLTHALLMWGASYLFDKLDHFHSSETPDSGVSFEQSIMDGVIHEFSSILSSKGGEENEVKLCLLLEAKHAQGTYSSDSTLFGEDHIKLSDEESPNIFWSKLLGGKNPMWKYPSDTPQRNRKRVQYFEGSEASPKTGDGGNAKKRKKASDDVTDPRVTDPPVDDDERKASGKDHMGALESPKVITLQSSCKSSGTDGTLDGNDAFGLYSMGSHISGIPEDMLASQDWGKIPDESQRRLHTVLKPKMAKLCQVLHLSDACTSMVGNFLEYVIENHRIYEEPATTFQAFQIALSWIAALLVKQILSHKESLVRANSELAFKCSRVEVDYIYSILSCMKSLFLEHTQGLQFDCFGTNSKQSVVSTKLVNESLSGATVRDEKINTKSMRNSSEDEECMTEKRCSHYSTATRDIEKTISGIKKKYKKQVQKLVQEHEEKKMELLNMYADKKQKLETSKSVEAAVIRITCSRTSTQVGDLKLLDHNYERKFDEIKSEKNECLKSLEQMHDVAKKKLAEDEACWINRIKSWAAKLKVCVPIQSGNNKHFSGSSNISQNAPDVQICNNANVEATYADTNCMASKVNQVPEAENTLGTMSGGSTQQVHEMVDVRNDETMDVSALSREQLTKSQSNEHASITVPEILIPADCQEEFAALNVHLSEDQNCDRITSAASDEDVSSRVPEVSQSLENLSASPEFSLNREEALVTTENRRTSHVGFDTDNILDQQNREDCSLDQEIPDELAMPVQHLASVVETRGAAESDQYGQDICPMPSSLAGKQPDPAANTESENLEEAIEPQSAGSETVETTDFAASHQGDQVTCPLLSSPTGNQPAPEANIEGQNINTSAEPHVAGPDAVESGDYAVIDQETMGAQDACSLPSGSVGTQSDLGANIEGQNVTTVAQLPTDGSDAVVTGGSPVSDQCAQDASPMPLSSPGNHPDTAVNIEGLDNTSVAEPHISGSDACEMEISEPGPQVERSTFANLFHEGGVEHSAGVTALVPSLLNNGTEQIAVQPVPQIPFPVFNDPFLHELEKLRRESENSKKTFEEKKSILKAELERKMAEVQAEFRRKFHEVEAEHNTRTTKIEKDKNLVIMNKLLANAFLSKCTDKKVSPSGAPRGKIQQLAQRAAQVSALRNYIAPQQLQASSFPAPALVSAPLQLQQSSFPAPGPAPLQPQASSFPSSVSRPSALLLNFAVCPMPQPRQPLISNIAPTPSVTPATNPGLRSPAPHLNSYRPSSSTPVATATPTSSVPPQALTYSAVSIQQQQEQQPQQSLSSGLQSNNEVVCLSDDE
MOM1-CMM2-M-Flag (Q9M658, form named): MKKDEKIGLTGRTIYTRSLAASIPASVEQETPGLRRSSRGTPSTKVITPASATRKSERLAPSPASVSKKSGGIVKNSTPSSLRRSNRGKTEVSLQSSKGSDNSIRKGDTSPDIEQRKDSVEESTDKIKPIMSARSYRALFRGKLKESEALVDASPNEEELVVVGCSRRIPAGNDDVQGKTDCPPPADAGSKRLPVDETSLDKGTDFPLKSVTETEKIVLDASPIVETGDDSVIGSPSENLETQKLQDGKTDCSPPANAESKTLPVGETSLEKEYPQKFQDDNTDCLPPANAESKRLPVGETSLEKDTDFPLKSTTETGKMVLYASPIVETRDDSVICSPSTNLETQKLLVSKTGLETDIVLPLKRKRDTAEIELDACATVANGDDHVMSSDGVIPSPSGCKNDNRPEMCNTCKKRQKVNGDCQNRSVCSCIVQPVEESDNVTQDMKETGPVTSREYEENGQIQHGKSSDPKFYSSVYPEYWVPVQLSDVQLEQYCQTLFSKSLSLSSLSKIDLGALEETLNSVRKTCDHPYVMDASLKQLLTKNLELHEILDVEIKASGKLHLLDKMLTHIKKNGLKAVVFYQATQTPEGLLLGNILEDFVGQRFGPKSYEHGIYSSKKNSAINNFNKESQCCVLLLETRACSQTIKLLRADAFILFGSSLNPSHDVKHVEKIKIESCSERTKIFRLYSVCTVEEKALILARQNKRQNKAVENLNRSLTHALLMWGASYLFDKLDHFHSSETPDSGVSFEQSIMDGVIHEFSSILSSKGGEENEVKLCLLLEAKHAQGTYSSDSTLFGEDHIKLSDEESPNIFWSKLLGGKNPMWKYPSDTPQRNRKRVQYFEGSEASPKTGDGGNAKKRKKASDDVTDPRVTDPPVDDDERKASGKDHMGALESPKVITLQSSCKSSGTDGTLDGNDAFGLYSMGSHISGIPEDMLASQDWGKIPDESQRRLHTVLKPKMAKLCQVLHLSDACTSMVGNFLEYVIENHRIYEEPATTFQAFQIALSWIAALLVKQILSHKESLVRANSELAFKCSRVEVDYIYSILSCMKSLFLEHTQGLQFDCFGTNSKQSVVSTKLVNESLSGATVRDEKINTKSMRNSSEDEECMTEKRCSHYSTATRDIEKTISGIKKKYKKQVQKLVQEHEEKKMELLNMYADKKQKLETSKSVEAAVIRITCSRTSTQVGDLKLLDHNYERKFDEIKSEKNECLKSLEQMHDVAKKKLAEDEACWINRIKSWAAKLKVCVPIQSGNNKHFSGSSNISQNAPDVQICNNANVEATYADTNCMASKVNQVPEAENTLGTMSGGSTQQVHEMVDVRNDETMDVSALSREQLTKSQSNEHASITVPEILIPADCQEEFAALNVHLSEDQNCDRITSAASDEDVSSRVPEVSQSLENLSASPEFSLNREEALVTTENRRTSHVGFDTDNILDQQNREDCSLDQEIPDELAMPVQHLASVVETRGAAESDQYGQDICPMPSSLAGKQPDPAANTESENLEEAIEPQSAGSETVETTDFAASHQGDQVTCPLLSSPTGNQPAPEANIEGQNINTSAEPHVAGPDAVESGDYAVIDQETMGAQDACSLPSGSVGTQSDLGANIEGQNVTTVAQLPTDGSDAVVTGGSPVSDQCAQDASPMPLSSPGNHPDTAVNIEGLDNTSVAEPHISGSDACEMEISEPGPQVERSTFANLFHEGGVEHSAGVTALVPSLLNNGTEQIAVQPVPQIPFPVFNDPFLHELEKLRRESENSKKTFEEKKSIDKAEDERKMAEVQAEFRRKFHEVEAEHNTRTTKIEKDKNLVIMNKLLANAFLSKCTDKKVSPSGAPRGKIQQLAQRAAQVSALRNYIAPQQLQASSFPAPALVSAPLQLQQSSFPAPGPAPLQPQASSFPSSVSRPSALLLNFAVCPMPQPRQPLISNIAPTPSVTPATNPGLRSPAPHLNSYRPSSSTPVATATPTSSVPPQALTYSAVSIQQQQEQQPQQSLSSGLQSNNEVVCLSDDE
UniProt Q9FLP6: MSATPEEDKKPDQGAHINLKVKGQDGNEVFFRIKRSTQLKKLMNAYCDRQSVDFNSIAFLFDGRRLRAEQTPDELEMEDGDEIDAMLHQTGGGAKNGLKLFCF

Like-named read-outs stand apart in the source and are kept apart here. No constants are given. Whether binding was seen depends on the method and setting. Binding seen in cells or lysates may run through a third protein. Some entries that bind do so weakly or less than the wild type. For some assays here: Where a sequence is shown, tags or fusion partners need not be part of it.

What all share (test): co-IP; protein extract of F1 plants carrying a Flag-tagged and a Myc-tagged transgene; anti-Flag affinity gel, eluted with 3xFlag peptide, western blotting
Assay [1] has as its target MOM1-CMM2-M-Flag (Arabidopsis) (UniProt Q9M658).
For assay [2], the target named is Flag-SUMO2 (Arabidopsis) (UniProt Q9FLP6).
In assay [3] the target is MOM1-Flag (Arabidopsis) (UniProt Q9M658).
In assay [4] the target is T1, Flag-PIAL2 (Arabidopsis) (UniProt F4JYG0).
T1 sequence: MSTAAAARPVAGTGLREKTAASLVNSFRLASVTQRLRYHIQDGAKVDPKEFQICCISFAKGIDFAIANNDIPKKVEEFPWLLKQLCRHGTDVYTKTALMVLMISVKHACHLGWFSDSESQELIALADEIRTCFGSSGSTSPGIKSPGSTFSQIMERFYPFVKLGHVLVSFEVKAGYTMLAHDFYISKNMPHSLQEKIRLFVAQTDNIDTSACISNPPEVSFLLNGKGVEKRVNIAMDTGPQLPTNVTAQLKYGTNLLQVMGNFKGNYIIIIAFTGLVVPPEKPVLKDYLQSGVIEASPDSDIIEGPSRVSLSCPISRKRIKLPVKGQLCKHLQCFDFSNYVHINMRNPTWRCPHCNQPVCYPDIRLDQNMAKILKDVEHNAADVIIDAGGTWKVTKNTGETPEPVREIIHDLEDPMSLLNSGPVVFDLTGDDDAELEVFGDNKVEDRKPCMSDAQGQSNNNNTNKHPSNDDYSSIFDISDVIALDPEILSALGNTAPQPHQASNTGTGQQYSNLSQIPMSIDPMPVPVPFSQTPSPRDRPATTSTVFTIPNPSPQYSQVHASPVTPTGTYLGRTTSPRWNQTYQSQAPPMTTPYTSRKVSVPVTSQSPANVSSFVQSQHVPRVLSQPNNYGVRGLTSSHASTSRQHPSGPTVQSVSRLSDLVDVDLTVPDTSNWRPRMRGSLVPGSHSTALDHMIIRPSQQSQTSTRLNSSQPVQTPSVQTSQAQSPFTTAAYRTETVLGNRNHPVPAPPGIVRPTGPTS

Assay [5] deals with MOM1-CMM2-M-Flag (Arabidopsis) (UniProt Q9M658). The source holds these as a separate data set.
Assay [6] concerns the target MOM1-Flag (Arabidopsis) (UniProt Q9M658). The source holds these as a separate data set.

On to MOM1-Myc (from UniProt Q9M658 1-2001), for which the binding result is recorded as “no binding” in assay [1], “no binding” in assay [2] and “binds” in assay [3].

B1: PIAL2-Myc (protein, UniProt F4JYG0 1-760)
chain: MSTAAAARPVAGTGLREKTAASLVNSFRLASVTQRLRYHIQDGAKVDPKEFQICCISFAKGIDFAIANNDIPKKVEEFPWLLKQLCRHGTDVYTKTALMVLMISVKHACHLGWFSDSESQELIALADEIRTCFGSSGSTSPGIKSPGSTFSQIMERFYPFVKLGHVLVSFEVKAGYTMLAHDFYISKNMPHSLQEKIRLFVAQTDNIDTSACISNPPEVSFLLNGKGVEKRVNIAMDTGPQLPTNVTAQLKYGTNLLQVMGNFKGNYIIIIAFTGLVVPPEKPVLKDYLQSGVIEASPDSDIIEGPSRVSLSCPISRKRIKLPVKGQLCKHLQCFDFSNYVHINMRNPTWRCPHCNQPVCYPDIRLDQNMAKILKDVEHNAADVIIDAGGTWKVTKNTGETPEPVREIIHDLEDPMSLLNSGPVVFDLTGDDDAELEVFGDNKVEDRKPCMSDAQGQSNNNNTNKHPSNDDYSSIFDISDVIALDPEILSALGNTAPQPHQASNTGTGQQYSNLSQIPMSIDPMPVPVPFSQTPSPRDRPATTSTVFTIPNPSPQYSQVHASPVTPTGTYLGRTTSPRWNQTYQSQAPPMTTPYTSRKVSVPVTSQSPANVSSFVQSQHVPRVLSQPNNYGVRGLTSSHASTSRQHPSGPTVQSVSRLSDLVDVDLTVPDTSNWRPRMRGSLVPGSHSTALDHMIIRPSQQSQTSTRLNSSQPVQTPSVQTSQAQSPFTTAAYRTETVLGNRNHPVPAPPGIVRPTGPTS
Turning to B1, the binding result is “binds” in assay [4], “binds weakly” in assay [5] and “binds” in assay [6].

B2: PIAL2-IND-M-Myc (protein, UniProt F4JYG0 1-760)
chain: MSTAAAARPVAGTGLREKTAASLVNSFRLASVTQRLRYHIQDGAKVDPKEFQICCISFAKGIDFAIANNDIPKKVEEFPWLLKQLCRHGTDVYTKTALMVLMISVKHACHLGWFSDSESQELIALADEIRTCFGSSGSTSPGIKSPGSTFSQIMERFYPFVKLGHVLVSFEVKAGYTMLAHAAYASKNMPHSLQEKIRLFVAQTDNIDTSACISNPPEVSFLLNGKGVEKRVNIAMDTGPQLPTNVTAQLKYGTNLLQVMGNFKGNYIIIIAFTGLVVPPEKPVLKDYLQSGVIEASPDSDIIEGPSRVSLSCPISRKRIKLPVKGQLCKHLQCFDFSNYVHINMRNPTWRCPHCNQPVCYPDIRLDQNMAKILKDVEHNAADVIIDAGGTWKVTKNTGETPEPVREIIHDLEDPMSLLNSGPVVFDLTGDDDAELEVFGDNKVEDRKPCMSDAQGQSNNNNTNKHPSNDDYSSIFDISDVIALDPEILSALGNTAPQPHQASNTGTGQQYSNLSQIPMSIDPMPVPVPFSQTPSPRDRPATTSTVFTIPNPSPQYSQVHASPVTPTGTYLGRTTSPRWNQTYQSQAPPMTTPYTSRKVSVPVTSQSPANVSSFVQSQHVPRVLSQPNNYGVRGLTSSHASTSRQHPSGPTVQSVSRLSDLVDVDLTVPDTSNWRPRMRGSLVPGSHSTALDHMIIRPSQQSQTSTRLNSSQPVQTPSVQTSQAQSPFTTAAYRTETVLGNRNHPVPAPPGIVRPTGPTS
B2: the binding entry in assay [4] and in assay [6] was “no binding” throughout.
